Out of some 48,000 compounds screened, about 550 (1.1%) were called active. Inconclusive results (about 4%) are left out. Cut-off read from the data, not from the text of the source: active = potency below about 15 µM; inconclusive = mostly about 16 µM to 33 µM; inactive = weaker than that. This is one part of the list.
Target: Lysosomal acid glucosylceramidase (Homo sapiens) (UniProt P04062)
Assay: Glucocerebrosidase;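 note: the screen sought inhibitors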
Settings: purified enzyme, resorufin glucoside fluorescence (screen aimed at inhibitors), 20 min
Procedure, shortened: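 Normal human glucocerebrosidase (0.2 nM final) was assayed with resorufin β-D-glucopyranoside (30 uM final) in 50mM citric acid/KH2PO4, 10mM sodium taurocholate, 0.01% tween-20, pH 5.9. Compounds were titrated; fluorescence (Ex 548, Em 600) read after 20 min at RT.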
Potency is the fitted concentration of half-maximal effect.

UniProt P04062, sequence (P04062 whole entry, looked up): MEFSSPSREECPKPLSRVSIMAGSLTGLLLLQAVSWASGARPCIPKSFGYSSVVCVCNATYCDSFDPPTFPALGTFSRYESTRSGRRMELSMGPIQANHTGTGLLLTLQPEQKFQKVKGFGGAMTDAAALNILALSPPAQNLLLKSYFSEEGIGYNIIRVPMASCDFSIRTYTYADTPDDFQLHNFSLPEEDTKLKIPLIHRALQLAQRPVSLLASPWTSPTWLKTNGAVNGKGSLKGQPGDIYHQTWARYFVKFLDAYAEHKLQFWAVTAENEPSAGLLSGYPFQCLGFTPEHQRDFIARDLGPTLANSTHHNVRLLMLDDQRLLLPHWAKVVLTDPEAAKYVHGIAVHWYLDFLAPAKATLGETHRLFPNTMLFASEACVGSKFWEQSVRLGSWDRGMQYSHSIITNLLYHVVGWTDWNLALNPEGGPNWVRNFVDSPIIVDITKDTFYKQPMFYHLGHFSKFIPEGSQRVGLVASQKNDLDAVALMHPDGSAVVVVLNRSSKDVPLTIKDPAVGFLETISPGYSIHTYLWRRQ

Potency, inactive:
Cc1nn(-c2ccccc2)c(Cl)c1C(=O)Nc1c(C)n(C)n(-c2ccccc2)c1=O > 76.9 µM
O=C(CSc1oc(-c2ccccc2)nc1S(=O)(=O)c1ccc(F)cc1)NCC1CCCO1 (stereo unspecified) > 76.9 µM
Cn1c(Cn2c(=O)sc3ccccc32)nnc1SCc1ccccn1 > 76.9 µM
CCc1nc(SCC(=O)Nc2c(C)n(C)n(-c3ccccc3)c2=O)n[nH]1 > 76.9 µM
O=C(c1cccnc1NCc1ccc(F)cc1)N1CCOCC1 > 76.9 µM
COc1ccc(NS(=O)(=O)c2cccc(-c3nnc4n3CCCCC4)c2)cc1 > 76.9 µM
Cc1cc(C(=O)Nc2ccc(S(=O)(=O)Nc3onc(C)c3C)cc2)c(C)o1 > 76.9 µM
CC(C)=CC(=O)Nc1ccc2c(c1)OCO2 > 76.9 µM
CCOC(=O)c1c(C)c(C(=O)Nc2ccc3c(c2)OCCO3)c(C)n1C > 76.9 µM
CCCCS(=O)(=O)c1sc2nc(C)cc(C)c2c1N > 76.9 µM
CCOc1ccc(C(CC(=O)O)NC(=O)c2ccco2)cc1OC (stereo unspecified) > 76.9 µM
Cc1cccc(N2CC34C=CC(O3)C(C(=O)O)C4C2=O)c1 (stereo unspecified) > 76.9 µM
Cc1ccc(S(=O)(=O)N(C)c2ccc(C(=O)O)cc2)cc1 > 76.9 µM
Cc1ccc(S(=O)(=O)NCCC(=O)NCCN2CCCCCC2)cc1 > 76.9 µM
CCOc1cc(C2C(C(=O)c3ccc(C)cc3)=C(C(=O)OC)Nc3nnnn32)ccc1O (stereo unspecified) > 76.9 µM
CCn1c(SCC(=O)N2CCCc3ccccc32)nnc1-c1c[nH]c2ccccc12 > 76.9 µM
CCn1c(CC(=O)Nc2ccc(C)cc2)nnc1SCC(=O)NCc1ccccc1 > 76.9 µM
CN(C(=O)c1ccccn1)c1nnc(-c2ccncc2)s1 > 76.9 µM
CCn1c(SCCOc2ccc(Cl)cc2)nnc1-c1cccs1 > 76.9 µM
COC(=O)c1ccc(NC(=O)CN2CCN(c3cccc(Cl)c3)CC2)cc1 > 76.9 µM
O=C(CCCN1C(=O)CCC1=O)Nc1ccc2c(c1)OCO2 > 76.9 µM
O=C1c2ccccc2C(=O)N1CCSc1nnc(-c2ccco2)n1Cc1ccccc1 > 76.9 µM
CCOC(=O)NC(CC(=O)O)c1ccc(OC)cc1 (stereo unspecified) > 76.9 µM
CCCOc1ccc(N2CC(C(=O)NC(C)C)CC2=O)cc1 (stereo unspecified) > 76.9 µM
CC(=O)C1=C(O)C(=O)N(CCN2CCOCC2)C1c1ccc(N(C)C)cc1 (stereo unspecified) > 76.9 µM
COc1ccc(NC(=O)CSc2nccc(C)n2)cc1 > 76.9 µM
Cc1cc(C)c2[nH]c(=O)c(CN(CC3CCCO3)C(=O)c3cnccn3)cc2c1 (stereo unspecified) > 76.9 µM
O=C(Nc1ccn(Cc2ccc(F)cc2)n1)c1ccncc1 > 76.9 µM
Cc1ccc(S(=O)(=O)N(C)CC(=O)NC2CC(C)(C)NC(C)(C)C2)cc1 > 76.9 µM
Cc1cnc(C(=O)OCC(=O)NC2CCCC(C)C2C)cn1 (stereo unspecified) > 76.9 µM
CCOC(=O)C1CCN(C(=O)CSc2ccccc2)CC1 > 76.9 µM
O=C(CCN1C(=O)c2ccccc2C1=O)NCCC1=CCCCC1 > 76.9 µM
Cc1oc2c(c1C(=O)NCc1cc(C(=O)O)co1)CCCC2 > 76.9 µM
N[C@@]12CCc3nonc3[C@]1(O)CC(c1ccccc1)=[N+]2[O-] > 76.9 µM
Cc1c(C)n(C(=O)CN2CCN(c3ccccn3)CC2)c2ccccc12
Cc1cc(NS(=O)(=O)c2ccc(NC(=O)C(C)Oc3ccc4c(C)cc(=O)oc4c3)cc2)no1 (stereo unspecified) > 76.9 µM
Cc1cc2oc(=O)cc(CN3CCC(C)CC3)c2c(C)c1Cl > 76.9 µM
COc1cc(OC)cc(C(=O)Nc2ncc3c(n2)CC(C)(C)CC3=O)c1 > 76.9 µM
NC1=NC2(CCCCC2)n2c(nc3ccccc32)N1
CCC(c1nnnn1C(C)(C)CC)N(CCCO)Cc1cc2cc(C)cc(C)c2[nH]c1=O (stereo unspecified) > 76.9 µM
O=C(O)CCSc1nnc(-c2ccc3c(c2)OCO3)o1 > 76.9 µM
Cc1oc2nc(SCC(=O)NC3CCCCC3)nc(N)c2c1C > 76.9 µM
Cc1sc(NC(=O)COc2cccc(-n3cnnn3)c2)c(C#N)c1C > 76.9 µM
CC1(C)OC(C(N)=O)C(C(N)=O)O1 (stereo unspecified) > 76.9 µM
COc1ccc(C(=O)Nc2cccc(C(=O)N3CCN(C)CC3)c2)cc1 > 76.9 µM
CCn1c(=O)c2c(nc3n2CC(C)CN3CCc2ccccc2)n(C)c1=O (stereo unspecified) > 76.9 µM
O=C(c1cccc(Cl)c1)N1CCN(c2ccccn2)CC1 > 76.9 µM
Cc1cc2cc(CN(Cc3ccco3)C(=O)NCc3ccccc3)c(=O)[nH]c2cc1C > 76.9 µM
CCc1nnc(NC(=O)c2ccc(COc3ccccc3)o2)s1
CCOc1ccc(C(C)(C)C)cc1S(=O)(=O)N1CCOCC1 > 76.9 µM
COC(=O)c1ccc2c(=O)n(CCCCCC(=O)N3CCN(c4ccc(F)cc4)CC3)c(=O)[nH]c2c1 > 76.9 µM
COc1ccc(C(C)=O)cc1COC(=O)Cn1cnc2ccccc2c1=O > 76.9 µM
O=C(Cn1nnc(-c2ccc(N3CCOCC3)cc2)n1)OC1CCCCC1 > 76.9 µM
C#CCOC(=O)c1ccccc1C(=O)n1nnc2ccccc21 > 76.9 µM
CC(=O)Nc1cc(-c2ccccc2)ccc1O > 76.9 µM
Cc1ccc(C2C(=O)N(C3CCC(C)CC3)CC(=O)N2C2CC2)cc1 (stereo unspecified) > 76.9 µM
CC(CN1CCCCC1)OC(=O)c1cc2ccccc2o1 (stereo unspecified) > 76.9 µM
Cn1cc(/C=N/n2cnc3scc(-c4ccc(Cl)cc4)c3c2=O)c2ccccc21 > 76.9 µM
Cc1occc1-c1nnc(SCCCC(=O)c2ccc(F)cc2)n1C > 76.9 µM
C=CCn1c(SCC(=O)NCC(=O)OCC)nnc1-c1cccc(OC)c1 > 76.9 µM
CC(C)(C)c1cc(C(=O)NCc2cccnc2)ccn1 > 76.9 µM
CC(C)CN(CCCNC(=O)CC1Oc2ccccc2NC1=O)CC(C)C (stereo unspecified) > 76.9 µM
CSCCC(NC(=O)C1CCC(C)CC1)C(=O)O (stereo unspecified) > 76.9 µM
COc1ccccc1N1CCN(C(=O)c2ccc(NC(C)=O)cc2)CC1 > 76.9 µM
N=c1c(C(=O)NCc2ccc(F)cc2)cc2c(=O)n3ccccc3nc2n1CC1CCCO1 (stereo unspecified) > 76.9 µM
CCOc1cccc2cc(C(=O)Nc3nccs3)c(=O)oc12 > 76.9 µM
CCOC(=O)c1ccccc1NS(=O)(=O)c1ccccc1F > 76.9 µM
O=C(NCc1ccco1)C1CC(=O)N(c2ccc(O)cc2)C1 (stereo unspecified) > 76.9 µM
COCCNC(=O)C(c1ccc(C)o1)N(CC1CCCO1)C(=O)Cn1nnc2ccccc21 (stereo unspecified) > 76.9 µM
Cc1ccc(CNC(=O)c2sccc2-n2cccc2)cc1 > 76.9 µM
Cc1ccc(Cn2c(=O)c3c(nc4n3CCN4Cc3ccco3)n(C)c2=O)cc1 > 76.9 µM
O=C(Nc1cccc(OC(=O)c2ccco2)c1)c1ccco1 > 76.9 µM
Cc1c(C(=O)NCCCN2CCCC2=O)oc2ccccc12 > 76.9 µM
COc1ccc(NC(=O)Nc2ccccc2C(N)=O)cc1OC > 76.9 µM
C=CCC1c2cccc(C(=O)O)c2C(=O)N1c1ccc(F)cc1 (stereo unspecified) > 76.9 µM
O=C(NCCCN1CCOCC1)c1c(O)c2cc(Br)cc(Br)c2[nH]c1=O > 76.9 µM
COC(=O)c1cc(S(=O)(=O)N2CCC(C)CC2)ccc1F > 76.9 µM
CC1CCCN(CCCNC(=O)c2coc3nc4ccccc4nc23)C1 (stereo unspecified) > 76.9 µM
COc1ccccc1NC(=O)CCn1c(=O)sc2ccccc21 > 76.9 µM
CCC(=O)Nc1cc(C)c(NC(=O)c2ccco2)cn1 > 76.9 µM
CC(C)Cn1c2c(c(O)c(C(=O)Nc3ncccc3O)c1=O)CCCC2 > 76.9 µM
CCOc1ccc(NC(=O)CN2C(=O)C3CC=CCC3C2=O)cc1 (stereo unspecified) > 76.9 µM
O=C1CC(c2ccco2)Cc2nc(N3CCN(Cc4ccc5c(c4)OCO5)CC3)ncc21 (stereo unspecified) > 76.9 µM
COC(=O)CNC(=O)COC(=O)C(Cc1ccccc1)NC(=O)c1ccco1 (stereo unspecified) > 76.9 µM
Cn1nnnc1SCc1nc2ccccc2s1 > 76.9 µM
c1ccc(Cn2nnc3c(NCC4CCCO4)ncnc32)cc1 (stereo unspecified) > 76.9 µM
O=c1c2c3c(sc2nc2sc(C4CC4)nn12)CCCC3 > 76.9 µM
CC(C)c1ccc2oc(-c3ccc(NC(=O)c4ncn[nH]4)cc3)nc2c1 > 76.9 µM
Cc1ccc(-n2c(Cc3cccn3C)nnc2SCC(=O)Nc2ccc3c(c2)OCO3)cc1 > 76.9 µM
CCOc1ccccc1Nc1nnc(SCc2ccc(C(=O)OC)o2)s1 > 76.9 µM
Cc1cc(NC(=O)c2cccc(C(=O)Nc3cc(C)on3)n2)no1 > 76.9 µM

Source: PubChem BioAssay AID360 (National Center for Advancing Translational Sciences (NCATS), 2006)
